Results reported in article PMC5643494, “TRPA1–FGFR2 binding event is a regulatory oncogenic driver modulated by miRNA-142-3p” (Nature Communications, 2017).

Molecular target: T1, purified full-length human TRPA1 (human, UniProt O75762 1-1119, biotinylated with EDC-based carboxyl-biotinylation reagent (streptavidin pull-down); labeled with Alexafluor 488 (MST); unlabelled in the GST pull-down)
T1 construct: human TRPA1, full length; kept in PBS with 0.014% F-14; also called hTRPA1; full-length purified TRPA1; source: Pichia pastoris, purified (Ni-NTA)
T1 sequence (O75762 whole entry): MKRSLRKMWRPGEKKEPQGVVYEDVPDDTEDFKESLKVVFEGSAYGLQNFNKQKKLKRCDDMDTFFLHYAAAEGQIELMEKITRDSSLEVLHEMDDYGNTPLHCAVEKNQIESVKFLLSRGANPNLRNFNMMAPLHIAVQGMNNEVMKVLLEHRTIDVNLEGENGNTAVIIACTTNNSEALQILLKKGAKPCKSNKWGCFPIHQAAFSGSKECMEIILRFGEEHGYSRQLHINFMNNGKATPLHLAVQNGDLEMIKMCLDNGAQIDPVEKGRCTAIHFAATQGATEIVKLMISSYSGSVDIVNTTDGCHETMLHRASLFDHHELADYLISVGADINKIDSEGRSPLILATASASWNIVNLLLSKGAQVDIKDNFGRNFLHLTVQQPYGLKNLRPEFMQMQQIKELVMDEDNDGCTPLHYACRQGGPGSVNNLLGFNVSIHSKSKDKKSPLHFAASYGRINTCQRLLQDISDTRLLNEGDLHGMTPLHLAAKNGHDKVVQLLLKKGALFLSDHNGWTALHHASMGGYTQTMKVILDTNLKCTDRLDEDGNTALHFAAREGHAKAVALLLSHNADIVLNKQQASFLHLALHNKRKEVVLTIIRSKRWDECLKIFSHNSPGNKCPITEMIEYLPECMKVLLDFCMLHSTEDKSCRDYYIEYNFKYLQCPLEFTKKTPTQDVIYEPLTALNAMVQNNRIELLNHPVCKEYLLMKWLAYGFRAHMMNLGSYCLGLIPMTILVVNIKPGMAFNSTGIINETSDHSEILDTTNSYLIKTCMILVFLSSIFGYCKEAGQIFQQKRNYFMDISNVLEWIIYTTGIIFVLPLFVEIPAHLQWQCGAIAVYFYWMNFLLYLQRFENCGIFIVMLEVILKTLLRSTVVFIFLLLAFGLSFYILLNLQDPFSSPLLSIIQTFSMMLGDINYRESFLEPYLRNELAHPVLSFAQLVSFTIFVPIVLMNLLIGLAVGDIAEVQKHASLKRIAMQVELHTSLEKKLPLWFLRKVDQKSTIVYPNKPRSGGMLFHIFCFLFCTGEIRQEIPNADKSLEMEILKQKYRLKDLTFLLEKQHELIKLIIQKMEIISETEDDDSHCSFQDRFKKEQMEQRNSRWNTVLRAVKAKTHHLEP
Experiment: MST; Alexafluor 488-labeled TRPA1 or ΔN at constant 83 nM, purified FGFR2 titrated 1:1; PBS with 0.014% F-14; NanoTemper NT.115; apparent
Conditions: both partners purified

Kd: 123 ± 23.4 nM
B1: purified full-length FGFR2 (receptor)
chain: not shown
notes: FGFR2, customized purified full-length protein from OriGene; also called F2; full-length purified FGFR2; source: bought: OriGene (customized purified protein)
